{"source": "PubChem BioAssay AID686979", "about": "(National Center for Advancing Translational Sciences (NCATS), 2013)", "note": "About 50,000 (12%) of roughly 420,000 compounds were called active. The shares of active, inactive and inconclusive entries below differ from those in the screen. Calls follow the shape of the dose curve; as a rule, active = well fitted inhibition curve with a large enough effect; inconclusive = small, poorly fitted or top-dose-only effect; inactive = flat fitted curve, though single readings scatter. No potency is given beside an inconclusive call; the fits are too rough. % is scaled to controls: 0 for no effect and ±100 for the full control effect; potency is read from the fitted curve at half-maximal effect; tags tell the direction and shape of the fitted curve.", "data": [{"assay": "qHTS for Inhibitors of human tyrosyl-DNA phosphodiesterase 1 (TDP1): qHTS in cells in presence of CPT; also: nearly all actives have a fitted effect of over 55% in size", "details": "chicken DT40 Tdp1-/-;hTDP1 cells + 20 nM CPT, ATP luminescence, 48 h; activity change, negative = growth inhibition: at 46.2 µM (top of the series) unless noted", "in_short": "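Chicken DT40 Tdp1-/- cells complemented with human TDP1, 400 cells/well, exposed to compounds plus 20 nM camptothecin for at least 48 h at 37 C; viability read as ATP content by CellTiter-Glo luminescence.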", "values": [{"smiles": "Cc1c(Cc2ccccc2)c(=O)oc2c(C)c(OCC(=O)NCc3ccccn3)ccc12", "Potency": "inconclusive [inhibitor, single point]"}, {"smiles": "O=C(Nc1ncccc1O)c1ccc(S(=O)(=O)N2CCCCCC2)cc1", "Potency": "inconclusive [inhibitor, single point]"}, {"smiles": "COc1ccccc1N1CCN(C(=O)c2cc(=O)c3cc(C)ccc3o2)CC1", "Potency": "active: 14.6 µM"}, {"smiles": "Cc1ccc(C)c(OCc2nc3ccccc3[nH]2)c1", "Potency": "inconclusive [inhibitor, single point]"}, {"smiles": "COc1ccccc1CN1CC(C(=O)NCc2cc(F)ccc2C)CCC1=O", "note": "(stereo not given)", "activity change, negative = growth inhibition": "inactive: -5.27%"}, {"smiles": "Cc1[nH]n(C(N)=S)c(=O)c1N=Nc1cccc(Cl)c1", "Potency": "inconclusive [inhibitor, single point]"}, {"smiles": "CN(C)c1ccc(-c2ccnc3c2CC(C)(C(=O)NCCc2ccccc2)O3)cc1", "note": "(stereo not given)", "Potency": "active: 29.1 µM"}, {"smiles": "CC1Cc2cc(S(=O)(=O)CCC(=O)NCc3ccccc3Cl)ccc2N1C(=O)C1CC1", "note": "(stereo not given)", "Potency": "active: 7.31 µM"}, {"smiles": "COc1ccccc1CNC(=O)CSc1nnc2c(n1)[nH]c1ccc(F)cc12", "Potency": "inconclusive [inhibitor, single point]"}, {"smiles": "Cc1nc(N)sc1C(=O)N/N=C/c1c[nH]c2ccccc12", "Potency": "inconclusive [inhibitor, single point]"}, {"smiles": "CCOc1ccc(CNS(=O)(=O)c2ccc3c(c2)CCCN3C(C)=O)cc1", "Potency": "inconclusive [inhibitor, single point]"}, {"smiles": "COc1ccccc1OCCNC(=O)CN(c1cccc(C)c1)S(=O)(=O)c1ccccc1", "Potency": "inconclusive [inhibitor, single point]"}, {"smiles": "CCOC(=O)c1c(C)n(C)c2c(C)cc(O)c(OC(C)=O)c12", "Potency": "active: 9.2 µM"}, {"smiles": "CN1CCN(C(=O)c2cc3c(c(-c4cccc(-c5cc6ccccc6o5)c4)n2)[C@@H](CCO)N(S(=O)C(C)(C)C)C3)CC1", "note": "(stereo not given in full)", "Potency": "inconclusive [inhibitor, single point]"}, {"smiles": "COc1ccc(-n2cc(C(=O)Oc3cc(C)cc(C)c3)c3ccccc3c2=O)cc1", "Potency": "inconclusive [inhibitor, single point]"}, {"smiles": "Cc1oc(=O)c(NC(=O)c2ccccc2)cc1C(N)=O", "activity change, negative = growth inhibition": "inactive: 23.8%"}, {"smiles": "Cc1nc(N2CCOCC2)nc(N2CCCCC2C)c1[N+](=O)[O-]", "note": "(stereo not given)", "Potency": "inconclusive [inhibitor, single point]"}, {"smiles": "CC[C@H](CO)Oc1cc(NCc2ccc(Cl)c(Cl)c2)c2ncn(C(C)C)c2c1", "Potency": "active: 16.4 µM"}, {"smiles": "Cc1cc(C)c(NC(=O)CN(C)C(=O)c2ccc(OCc3ccccc3)cc2)c(C)c1", "Potency": "inconclusive [inhibitor, single point]"}, {"smiles": "Cc1ccc(NC(=O)CN(C)C(=O)Cn2ncc(Cl)c(Cl)c2=O)cc1", "Potency": "active: 3.26 µM"}, {"smiles": "C#CCOc1ccccc1/C=C1/C(=O)ON=C1C", "Potency": "inconclusive [inhibitor, single point]"}, {"smiles": "COc1ccc(CNC(=O)C2(C)Cc3c(-c4cccc(NC(C)=O)c4)ccnc3O2)cc1OC", "note": "(stereo not given)", "Potency": "inconclusive [inhibitor, single point]"}, {"smiles": "COc1ccc(/C=N/N(Cc2ccccc2)c2ccccc2)cc1O", "Potency": "inconclusive [inhibitor, single point]"}, {"smiles": "COc1ccc(CC(=O)N(Cc2cc3cc(OC)ccc3[nH]c2=O)C(C)C)cc1", "Potency": "inconclusive [inhibitor, single point]"}, {"smiles": "COCCn1c(C)cc(C(=O)COC(=O)c2ccc3ncsc3c2)c1C", "Potency": "active: 13 µM"}, {"smiles": "COC(=O)/C(=C/N(C)C)C(=O)N1CCN(c2ccc(Cl)c(Cl)c2)CC1", "Potency": "inconclusive [inhibitor, single point]"}, {"smiles": "COc1ccc(C(=O)COC(=O)CNC(=O)C2CCCCC2)c(OC)c1", "Potency": "inconclusive [inhibitor, single point]"}, {"smiles": "COc1cccc(Oc2cc(NN3CCCCC3)c([N+](=O)[O-])cc2[N+](=O)[O-])c1OC", "activity change, negative = growth inhibition": "inconclusive: -36.4% [inhibitor]"}, {"smiles": "NC(=O)c1c(NC(=O)Cn2nc(C(=O)O)c3ccccc3c2=O)sc2c1CCCC2", "Potency": "inconclusive [inhibitor, single point]"}, {"smiles": "N#CC1=C(SCC(=O)Nc2ccc(C(=O)O)cc2)NC(=O)CC1c1ccco1", "note": "(stereo not given)", "activity change, negative = growth inhibition": "inactive: -4.35%"}, {"smiles": "CSc1ccccc1N1CCN(C(=O)Nc2ccc3c(c2)NC(=O)CO3)CC1", "Potency": "inconclusive [inhibitor, partial curve]"}, {"smiles": "C[C@]12c3[nH]c4ccc(Cl)cc4c3CCN1C(=O)[C@@H](CC(=O)NCCCn1ccnc1)C[C@@H]2C(=O)N1CCCCC1", "Potency": "inconclusive [inhibitor, partial curve]"}, {"smiles": "NS(=O)(=O)c1ccc(NC(=O)C2CCCN(S(=O)(=O)c3ccc(F)cc3)C2)cc1", "note": "(stereo not given)", "activity change, negative = growth inhibition": "inactive: -10.7%"}, {"smiles": "COC(=O)c1ccc(C)c(NC(=O)CCNC(=O)c2ccc([N+](=O)[O-])cc2)c1", "activity change, negative = growth inhibition": "inactive: -13.3%"}, {"smiles": "COc1ccccc1CC(=O)Nc1ccc2nc(Nc3cccc(Cl)c3)cc(C)c2c1", "Potency": "active: 20.6 µM"}, {"smiles": "Cc1onc(-c2ccccc2)c1C(=O)Nc1nc2c(s1)CCCC2", "Potency": "inconclusive [inhibitor, single point]"}, {"smiles": "CC(NC(=O)c1ccnn1C)C1CCCO1", "note": "(stereo not given)", "activity change, negative = growth inhibition": "inactive: 0.106%"}, {"smiles": "CC(C)C(=O)Nc1ccc2nc(SCC(=O)N3CCc4ccccc43)sc2c1", "Potency": "active: 10.3 µM"}, {"smiles": "Cc1ccc(-c2nnc(SCC(=O)NC3CC3)n2N)cc1", "activity change, negative = growth inhibition": "inactive: -1.93%"}, {"smiles": "CC1NC(=O)NC1CCCCC(=O)O", "note": "(stereo not given)", "Potency": "inconclusive [inhibitor, single point]"}, {"smiles": "c1ccc2c(c1)CCCC2C1=NCCN1", "note": "(stereo not given)", "Potency": "inactive"}, {"smiles": "COc1ccc(-c2csc3ncnc(Nc4cc(OC)cc(OC)c4)c23)cc1", "Potency": "inconclusive [inhibitor, single point]"}, {"smiles": "S=c1[nH]nc(COc2ccc3c(c2)OCO3)n1-c1ccccc1", "activity change, negative = growth inhibition": "inactive: -4.17%"}, {"smiles": "Cc1ccc(-n2c(SCC(=O)c3ccccc3)nc3c([nH]c4ccccc43)c2=O)cc1", "Potency": "inconclusive [inhibitor, full curve]"}, {"smiles": "NC(=O)NC[C@@H]1CC[C@@H](Cc2ccc(-c3ccccc3)cc2)O1", "Potency": "inconclusive [inhibitor, single point]"}]}]}
